The other results are listed elsewhere or left out.
These sequences were tested on PfSIP2 AP2 domain 1 (GST-tagged) (assay: gcPBM binding intensity (ln(normalized median fluorescence intensity)); higher = stronger DNA binding).
Summary of the method: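 Binding intensity values are the highest Masliner-normalised natural-log median intensity among replicate spots of either probe orientation. The binding step lasted 1 h in 1× PBS with 1% milk, 0.2 mg/ml BSA, 0.5% salmon testes DNA and 0.03% Triton X-100, using GST-tagged P. falciparum DNA-binding domains expressed in E. coli on an Agilent 4 × 180k array of primer-extended double-stranded 36-bp intergenic genomic probes plus negative controls. Alexa488 anti-GST antibody and a 488 nm scan detected bound protein.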

Sequence	gcPBM binding intensity (ln)
ATATATATATATATAGTGCATAAAATAAGTTTCTAA	9.62
TATTTATAAACATACGCACACATTAAAATATATATA [CACACA_site6051]	7.26
GGTGGAAACAATTACACACACACAAAAAAAAAAAAA [CACACA_site3208]	7.04
TTTTTATAAATACACATAAATATATATATATATATA [TGCATGCA_negctrl_site393]	9.2
ACACAAAAAAATATATATATATATATATATATGTTA [CACACA_negctrl_site55]	7.86
AAAAAAAAAAAAAAATGTACATTTTGAAAGGATATA [XGTACX_site8217]	7.38
ATGCATTATTAGAATACACACCATACGCATATTTAT [CACACA_site4319]	7.15
TAAAGAAAAAGAGAATGTACATGAGAAAAGTATACT [XGTACX_site7472]	7.05
AGAAAAAAAAAAAAATGTACAGACTTTTTCTTATAA [XGTACX_site6481]	6.79
AAAAAAGATAATTATGCACACACACCCACCCACCCA [CACACA_site8825]	8.12
ATATACACACAAAAACGTACACATATATATATGTAT [XGTACX_site2673]	7.28
GGTATAATAATATATAGTACACACAAAAATGGAAGT [XGTACX_site7058]	7.45
AAAAAAAAAAAAAGCACACATATAAATATGAATAAA [CACACA_site1393]	7.18
AAAAAAAAAAAAAACACACACATACACCCAAAAATG [CACACA_site4223]	7.48
AAAAAAAAAAAAAAAAAAAAAAAAATATATAATTTA [CACACA_negctrl_site583]	8.71
CAATCATGGGTTTACACACACATGCATGTGAAAATT [CACACA_site1349]	6.84
CATATTAAAAATTATTGTACATATTAATGAATATAA [XGTACX_site2734]	7.07
GATGATAATAAATTTATATATAATATTATCTTATGT [GTGCAC_negctrl_site672]	6.9
ATTTTTGCAGTAATTAAATAGACAAAATGAAAAAAA [CACACA_negctrl_site1537]	7.15
AACCAAACAAATAAACGTACAAACATTACATATATT [XGTACX_site2265]	7.05
ACAATAAAGAAGTGTACACATATATCAATAAAAAAA [CACACA_site5228]	7.13
AAAATAATATTTAATACACACATAATTTTAATATAA [CACACA_site4588]	6.7

Sequence	gcPBM binding intensity (ln)
TACTTATATTATTTTATTATTAAATTTAAAACGAAA [CACACA_negctrl_site736]	6.99
GTAAGAAACAGACACACACACATATATATATATATA [CACACA_site794]	9.69
GAACAGTTTGTTTAGTGTACTTTTTTTTTTTTTTTT [XGTACX_site8881]	7.65
AATAATTTTATCGGTACACACTGTATGCATAATATT [CACACA_site4364]	7.14
CTTAATTTAATGAAATGTACATATAAAAATATTATA [XGTACX_site3303]	7.11
TTTGATCGATGGATTTAACACACAAAAAAAAAAAAA [CACACA_site9279]	7.01
ATGTACAAAATAAGCACACACAAAAAAAAAAAAAAT [CACACA_site2998]	7.05
TCAAAAATAAAGATCACACATATATATATATATATA [CACACA_site4381]	9.99
TCTAATTACAAAAACATACACACAAAAAAAAAAAAA [CACACA_site3783]	6.89
CCTATAAATGCATTCACACATATATATTTATATTAT [CACACA_site6086]	7.18
ATGATAAACATGGATACACACATATAGATTGCATAT [CACACA_site6843]	6.97
ATATATATTAACAATACACACGTGTATACCTTATTG [CACACA_site5258]	7.26
TTCATCTTAAAATTGGGTACATAACACAAAGTATAA [XGTACX_site1894]	7.05
ATTTCTCTATCGTAATGTACATAAAAAAGAAAAACA [XGTACX_site6374]	7.13
TTATTAAATTCATAAGTGCATTTATGATTAATTTTT [GTGCAC_site9749]	9.08
TTACATGTAAAAGGTACACACATTATGTATACAAAT [CACACA_site1117]	7.15
TTTTTTTTTTTTTTTTGTCCGTACTGCTTTGTGTTT [XGTACX_site3687]	6.99
CTATAAATATTTTATTGTACACACTTTTTATGAATG [XGTACX_site6711]	7.22
ATATATATATAGTGCACACTTAAGAATATAAAGAGG [CACACA_site1151]	10.1
AAAATTTTTAGTTATACACACAACATAGAAAATATT [CACACA_site328]	7
AATACATACAGACACACACACACATATATATATATA [CACACA_site3558]	9.52
AAACTTAATATCGGTACACACACAAGATAAGAATTA [CACACA_site8200]	6.97

Sequence	gcPBM binding intensity (ln)
CACATACACCCATACACACACATATATATTAAGATA [CACACA_site4459]	7.6
AAAAGGAAAAATATCACACATATATATATATATATA [CACACA_site5586]	9.92
ATTATTATACACAAATGTACATGTGAATTTTTTTTC [XGTACX_site6982]	6.96
AATAAGTAACAAAATACACACATATAGGTAATTATA [CACACA_site6949]	6.83
ATATATATTTATAGGTGTACAAAATACTATTTTAGG [XGTACX_site8499]	7.17
TTACCCATTCCCTTTACATGCAATTTGTATTAATAA [TGCATGCA_site412]	7.56
GTACGTTAGATATATACACACATACATAATAAAGAA [CACACA_site7327]	7.22
TTAATTCTACTTATTACACACATATTAAGCAAAAAT [CACACA_site4921]	7.03
ATATGTTCCGAAGGTTGTACACACATAGAAATATAC [XGTACX_site8227]	7.47
AAAATATATACAATATGTACATATATATATATATAT [XGTACX_site1898]	9.23
TATATATATATAAAGACACACATCTATAGAATGTTA [CACACA_site2557]	9.12
TATTTATATTTATACACACACACAAAAAAAAAAAAA [CACACA_site6817]	7.22
AAAAAAAAAAAAAAAGCACACACACCGATGTGTATA [CACACA_site8224]	7.5
TATATATATATACCTTGTACTTACATTCGCATATAA [XGTACX_site2466]	8.81
ACATAAATATATGACACACACACATATTATATATAT [CACACA_site3065]	7.74
CCATTACCATATAAAACACACAAACATACATACATA [CACACA_site5952]	7.23
GTATAATTATGTGCACGTACATATTTTATTATATAT [XGTACX_site8586]	9.21
TACCAAATTTATTCTTGTACATATATATATATATAT [XGTACX_site4832]	9
AATATAGAAATAAATATATCACATTTGTGTTTAAAC [XGTACX_negctrl_site68]	6.82
TTTATGACTTGAAAAAGTACACATATATTTATGCAA [XGTACX_site5451]	7.29
AAAAATAAATATACATGTACATAATAATAATATATA [XGTACX_site8359]	6.97
TTTGAAAAAAAATATTGTACACGTGAATAAAGTATT [XGTACX_site644]	7.01

Sequence	gcPBM binding intensity (ln)
TTGCATCTATTTTTGAGTACACAATGAGAATAATTA [XGTACX_site7171]	7.34
AAAAAAAAAAGACACACACACACATACACATACATA [CACACA_site7362]	7.09
TATATATATATATATATATATATATATATAATTTGA [XGTACX_negctrl_site3]	8.92
TTATTATATATGTTCACATAAATACATAAATATATA [GTGCAC_negctrl_site529]	6.94
TTAAAAAAGTAATTAACACACAATAATGTAATGCAT [CACACA_site4176]	6.72
ACCCAAAATATATTCACACAAAAAATATTAAAAATA [CACACA_site5433]	7.12
TAATATATATAACAAGTGCAAAAAAATATAGATATT [GTGCAC_site9625]	7.98
AATAAACAAATAAATAAATAAACAGATAAATAAATC [CACACA_negctrl_site920]	6.78
AAGCATCCTACTGATTGTACATATATATATATATAT [XGTACX_site2150]	9.38
GAGAACATTGATACACGTACATAAGTTATAAGTATT [XGTACX_site7665]	6.88
TTAGGTTATAAATACACACACAAAAGAAAAAAAAAA [CACACA_site5625]	6.9
TATTTAAATTAATATTGTACATATATTTATAATATA [XGTACX_site6109]	6.82
TTTATTTATATAATTACACACATATATACACAAATG [CACACA_site8903]	7.21
AAATATATTATATATGCATGCGCCAAGATTTATATA [TGCATGCA_site770]	6.98
TATATATATTCTTTGTGTACTCATATAAGGGTAGAA [XGTACX_site8121]	7.47
TTTTTAGAAAAGGTTATAAAAAATTAATTGAAAAAA [GTGCAC_negctrl_site289]	6.78
AATCAATATTATATATGTACTTATTTTCACTTTTGC [XGTACX_site1775]	6.91
TTGTCATTATTATATTGTACAATAAGTATTAAAGAA [XGTACX_site1205]	7.21
AACTGATATTAATTCTGTACCTATACGTTATATGTT [XGTACX_site1003]	6.95
TATGAACATATATATTGTACAAAATTATAATTTCAA [XGTACX_site6406]	6.99
AAGCGAATCTATATCACACACAAAAAAATCAGACTA [CACACA_site7072]	6.94
AGTTCAGAATTGAATAGTACATAAATATAACAAAAT [XGTACX_site650]	7.46
